Measurements taken from paper PMC4336329 (PLoS ONE, 2015).
In all, about 310,000 compounds went through this assay and about 2,200 (0.71%) showed an effect of 50% or more. Effects have a minus sign here. The list shows a part of the results.

biological target: human ether-à-go-go-related gene (hERG) potassium channel (human, UniProt Q12809); assay: primary screen, population patch clamp on CHO cells stably expressing hERG
Sequence (Q12809 whole entry, looked up): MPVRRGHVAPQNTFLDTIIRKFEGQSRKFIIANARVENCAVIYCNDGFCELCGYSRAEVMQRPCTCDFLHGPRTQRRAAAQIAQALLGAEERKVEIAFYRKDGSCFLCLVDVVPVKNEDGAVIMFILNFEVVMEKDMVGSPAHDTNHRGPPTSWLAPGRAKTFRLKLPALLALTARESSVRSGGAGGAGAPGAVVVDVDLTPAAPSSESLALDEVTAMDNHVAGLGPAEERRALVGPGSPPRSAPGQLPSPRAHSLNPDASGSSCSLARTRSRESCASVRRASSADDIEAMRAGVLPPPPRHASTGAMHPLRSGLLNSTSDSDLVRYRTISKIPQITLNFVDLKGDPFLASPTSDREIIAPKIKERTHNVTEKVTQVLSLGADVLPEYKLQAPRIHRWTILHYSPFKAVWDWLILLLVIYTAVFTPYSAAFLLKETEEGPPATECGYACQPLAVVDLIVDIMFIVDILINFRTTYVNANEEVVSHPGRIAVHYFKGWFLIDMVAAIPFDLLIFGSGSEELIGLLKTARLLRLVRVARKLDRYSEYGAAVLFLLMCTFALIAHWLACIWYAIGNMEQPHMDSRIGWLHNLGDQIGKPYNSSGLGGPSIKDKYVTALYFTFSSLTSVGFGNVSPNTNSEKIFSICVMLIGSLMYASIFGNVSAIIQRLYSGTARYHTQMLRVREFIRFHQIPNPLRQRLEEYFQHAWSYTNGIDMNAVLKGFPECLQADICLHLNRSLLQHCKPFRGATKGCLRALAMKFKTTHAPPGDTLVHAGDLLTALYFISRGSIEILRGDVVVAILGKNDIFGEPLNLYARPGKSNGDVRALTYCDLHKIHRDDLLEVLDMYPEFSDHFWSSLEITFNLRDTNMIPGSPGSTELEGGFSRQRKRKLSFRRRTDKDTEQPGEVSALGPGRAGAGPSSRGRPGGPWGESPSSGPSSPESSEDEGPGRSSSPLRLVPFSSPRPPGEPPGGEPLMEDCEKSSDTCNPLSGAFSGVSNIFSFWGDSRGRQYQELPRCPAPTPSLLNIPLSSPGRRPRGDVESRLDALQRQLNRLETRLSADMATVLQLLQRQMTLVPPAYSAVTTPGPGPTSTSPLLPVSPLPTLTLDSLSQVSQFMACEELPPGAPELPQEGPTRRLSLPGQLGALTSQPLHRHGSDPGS

Compound | hERG current change (%, negative = inhibition) at 1uM
Cc1cc2ccccn2c1C(=O)c1ccccc1Br | 10.6%
CC(OC(=O)c1cccc(S(=O)(=O)N2CCCC2)c1)C(=O)NC1CCCCC1C (stereo not shown) | 10.5%
Cc1cc(/C=C(\C#N)C(=O)O)c(C)n1CC(C)C | 15%
COc1cccc(COC(=O)c2sc3nc4n(c(=O)c3c2C)CCC4)c1OC | 11.4%
C1CCCCCC2(CCCCC1)OCC(CN1CCOCC1)O2 (stereo not shown) | 8.66%
Cc1ccc2c(c1)N(CC(=O)NCc1ccco1)C(=O)C(C(C)C)O2 (stereo not shown) | 11.4%
CCCCCCCNC(=O)C1(CC2CC(c3cccc(Br)c3)=NO2)CCNCC1 (stereo not shown) | -36.1%
CCOC(=O)Cn1c(=O)oc2cc(S(=O)(=O)N3CCn4c3nc3ccccc34)ccc21 | -0.238%
O=C(O)C1Cc2[nH]cnc2C(c2cccc([N+](=O)[O-])c2)N1 (stereo not shown) | 8.6%
CCCc1nc2ccc(NC(=O)c3ccco3)cc2c(=O)n1Cc1ccc(Cl)cc1 | -6.18%
CC(C)(C)c1ccc(OCc2ccc(C(=O)NCc3cccnc3)o2)cc1 | 9.88%
C=CCNC(=O)c1onc(CSc2ccc(Cl)cc2)c1C(=O)NCC=C | -0.357%
CCN(CC)c1ccc(NC(=O)C2=CC=CN3CCS(=O)(=O)N=C23)cc1 | 13.4%
CCOC(=O)c1c(C)oc2c1cc(O)c1ccccc12 | 4.59%
CC12CC3CC(C)(C1)CC(Nc1nc(N4CCOCC4)nc4ccccc14)(C3)C2 | 11.2%
COc1cccc2cc(/C(=N/O)c3ccccc3)oc12 | -16.4%
CCOC(=O)Cn1cnc2scc(-c3ccccc3)c2c1=O | 12%
Cc1ccc(S(=O)(=O)NC(CC(=O)O)c2ccccc2)cc1 (stereo not shown) | 14%
OCCNc1nc2nonc2nc1NCCO | 8.87%
Cc1ccc(C(=O)Nc2cccc(NC(=O)c3ccc(C)c([N+](=O)[O-])c3)n2)cc1[N+](=O)[O-] | 13.2%
CCOC(=O)/C=C1\SCC(=O)N1Cc1nnc(-c2ccccc2Br)o1 | 6.69%
O=C(CSc1nnc(CNC(=O)c2cccc(C(F)(F)F)c2)o1)NCC1CCCO1 (stereo not shown) | 14.7%

Compound | hERG current change (%, negative = inhibition) at 1uM
O=C(NCc1ccccc1F)C1CCCN1C(=O)Nc1ccccc1 (stereo not shown) | 8.87%
CCOc1ncccc1C(=O)Nc1cc(C(F)(F)F)ccc1N1CCOCC1 | 7.4%
COCCN(C(=O)CSc1nnc(Nc2ccc(C)cc2)s1)c1c(N)n(CC(C)C)c(=O)[nH]c1=O | -2.82%
CCOc1ccc(S(=O)(=O)Nc2ccc(C(=O)N/N=C(\C)c3ccc(-n4ccnc4)cc3)cc2)cc1 | 1.26%
COC(=O)C1=C(c2c(C)noc2C)C[C@@H]2CC[C@H]1N2C(=O)NC(C)C | 7.13%
O=C(Nc1c(Cl)ccc2nsnc12)c1ccc([N+](=O)[O-])o1 | 8.79%
COc1ccc(C(=O)C2CCCN(Cc3cn(C)nc3-c3ccccc3)C2)cc1F (stereo not shown) | -19.1%
CCOC(=O)CSc1nc2ccsc2c(=O)n1C1CCN(C(=O)OCC)CC1 | -4.96%
COc1ccc(NC(=O)c2ccc(Cl)nc2)cc1S(=O)(=O)N1CCCCC1 | -36.4%
COc1ccccc1NS(=O)(=O)c1ccc(NC(=O)c2nc3nc(C)cc(C(F)F)n3n2)cc1 | 5.18%
Cc1ccc(C)c(NC(=O)C2CCCN(S(=O)(=O)c3ccc4[nH]c(=O)ccc4c3)C2)c1 (stereo not shown) | 5.83%
CCOC(=O)C1=C(C)NC(=O)NC1c1ccc(OCC(=O)N2CCCCC2)cc1 (stereo not shown) | 13.3%
CC(C)(C)NS(=O)(=O)c1ccc(OCC(=O)NCc2ccco2)cc1 | 10.4%
COc1cccc(/C=N/Nc2nc3ccccc3[nH]2)c1O | 10.7%
O=C(NCc1ccc(Cl)cc1)C(=O)NCC1OCCN1S(=O)(=O)c1cc(F)ccc1F (stereo not shown) | 14.3%
O=C(NCCc1ccccc1)Oc1ccc(Cl)cc1 | 11.1%
Cc1ccc(C)c2sc(N3CCN(C(=O)c4ccc([N+](=O)[O-])o4)CC3)nc12 | -5.85%
COc1ccc(CCN(C(=O)COc2ccccc2)c2nc(-c3ccccc3)cs2)cc1OC | 3.77%
COc1cc(NC(=O)Cn2cnc3ccccc3c2=O)c(OC)cc1Cl | 14.1%
Cc1noc(NS(=O)(=O)c2ccc(NC(=O)C(CC(C)C)N3C(=O)c4ccccc4C3=O)cc2)c1C (stereo not shown) | 10.9%
Cc1ccc(OCC(=O)c2cc(C)n(C)c2C)c([N+](=O)[O-])n1 | -3.31%
Cc1ccc(S(=O)(=O)N(C)c2ccc(OCC(=O)Nc3nc4ccccc4s3)cc2)cc1 | 16.3%

Compound | hERG current change (%, negative = inhibition) at 1uM
O=C(CSc1ccc2c(c1)OCCO2)NCCN1C(=O)CSC1=O | 12.8%
COc1ccc2oc(C(=O)OCC(=O)NC(C)c3ccccc3)c(C)c2c1 (stereo not shown) | -10.5%
Clc1ccc2c(c1)Nc1ccccc1CC2 | 6.15%
O=C(O)CCC(=O)Nc1ccc(C(=O)OC2CCCCC2)cc1 | 10.7%
Cc1ccc(NS(=O)(=O)c2ccc(C(=O)N3CCCN(C)CC3)cc2)cc1 | -0.822%
CCCOc1ccc(N2C(=O)CC(N3CCN(c4ccccc4F)CC3)C2=O)cc1 (stereo not shown) | 5.47%
COc1ccc(CCNC(=O)c2ccc3nc4cc(Cl)ccc4c(=O)n3c2)cc1OC | 11.7%
Cc1ccccc1CSc1ccc2nnc(-c3ccccn3)n2n1 | -50.9%
CC#CC[N+](C)(CC#CC)CC(=O)c1ccccc1.[Br-] | 17.9%
O=C(CNC1CCCCCC1)Nc1ccccc1N1CCCCC1.O=C(O)C(=O)O | 14.9%
Cc1nn(-c2ccccc2)cc1/C=N/O | 4.39%
O=c1cc(O)c2sc(Nc3cccc(C(F)(F)F)c3)nc2[nH]1 | 3.21%
COc1cc(C2CC(=O)Oc3c2c(=O)n(C)c2ccccc32)cc(OC)c1OC (stereo not shown) | 9.93%
Cn1ncc(Cl)c1C(=O)N/N=C/c1cc2c(cc1[N+](=O)[O-])OCO2 | 0.963%
CC(C)c1nc2c(c(=O)n(C)c(=O)n2C)n1C | 3.41%
CC(C)N(CCNC(=O)c1ccc(NC2=NC3CS(=O)(=O)CC3S2)cc1)Cc1ccco1 (stereo not shown) | 12.1%
O=C(NCC12CC3CC(CC(C3)C1)C2)c1nn2cccnc2c1Cl | 7.53%
COC(=O)c1ccc(/C=N/NC(=O)c2ccccc2Cl)cc1 | 13.7%
O=C(COc1ccc(-c2ccccc2)cc1)Nc1cccnc1 | 6.87%
CC(C)(C)n1nnnc1C(c1ccncc1)N1CCN(c2ccc(O)cc2)CC1 (stereo not shown) | 9.15%
CC1=C(C(=O)OCc2ccccc2)C(c2ccc(Cl)cc2)NC(=O)N1CCCCCC(=O)O (stereo not shown) | 15.4%
Cc1cc(O)c(C(=O)/C=C/c2c(F)c(F)c(F)c(F)c2F)c(=O)o1 | 16.1%

Compound | hERG current change (%, negative = inhibition) at 1uM
CCOc1ccc(NC(=O)c2ccccc2NS(=O)(=O)c2ccc(F)cc2)c([N+](=O)[O-])c1 | 14.2%
N#CCCN(C(=O)COC(=O)c1ccc2c(c1)NC(=O)CS2)c1ccc2c(c1)OCCO2 | 3.71%
COc1ccccc1C(=O)N=C1SC2CS(=O)(=O)CC2N1c1ccccc1 (stereo not shown) | 12.7%
COc1ccc(N(C(=O)CNC(=O)c2cccs2)C(C(=O)NC2CCCC2)c2ccncc2)cc1 (stereo not shown) | 3.16%
CCC(C)N(C(=O)CN1C(=O)NC2(CCc3ccccc32)C1=O)C1CCS(=O)(=O)C1 (stereo not shown) | 9.15%
Cc1cc(C)cc(NC(=S)NCCSc2ccc(Cl)cc2)c1 | 4.41%
COc1ccc(-c2cc(-c3ccccc3)c(C#N)c(SCC(=O)Nc3ncc(C)s3)n2)cc1 | 17.9%
O=C(N/N=C\c1ccc(OC(=O)c2ccco2)cc1)c1ccc(Cl)cc1 | 7.3%
Nc1ccc(C(=O)N/N=C\c2ccc(OC(=O)c3ccccc3Cl)cc2)cc1 | 14.1%
CCc1ccc(NC(=O)c2ccc(-n3cncn3)c([N+](=O)[O-])c2)cc1 | -5.68%
COc1ccc(C(=O)CCC(=O)O)cc1 | 5.41%
O=S(=O)(c1ccc(N2CCOCC2)nc1)N1CCOCC1 | 3.63%
O=C(O)C(=O)O.c1ccc(COc2ccc(OCCCNC3CCCC3)cc2)cc1 | 8.41%
Cc1ccc(S(=O)(=O)NCCNC(=O)N2CCOCC2)cc1 | 13%
CC(C)COc1nc2ccccc2nc1N1CCN(C)CC1 | -0.839%
CC(=O)Nc1cccc(C(=O)OCC(=O)NC(C)c2ccc(F)cc2)c1 (stereo not shown) | 16.1%
N#Cc1ccccc1NC(=O)CC1c2ccccc2Oc2ccccc21 | 2.03%
COc1ccc(NC(=O)C(=O)Nc2cccc3cccnc23)c(OC)c1 | 16.9%
COc1cc2c(cc1OC)C(c1ccccc1F)NCC2 (stereo not shown) | 11.9%
